From the RNAGym collection of RNA variant scans (doi:10.1073/pnas.2313332121)
This sample is rich in variants without activity.

B1: TPR 5TU (parent)
chain: GGAUCUUCUCGAUCUAACAAAAAAGACAAAUCUGCCACAAAGCUUGAGAGCAUCUUCGGAUGCAGAGGCGGCAGCCUUCGGUGGCGCGAUAGCGCCAACGUUCUCAACUAUGACACGCAAAACGCGUGCUCCGUUGAAUGGAGUUUAUCAUG

Variants of: B1
Assay: polymerase ribozyme fitness, log enrichment relative to wild type (log ratio); higher = more active; in vitro selection for triplet polymerase activity
Procedure, shortened: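 Both subunits of a heterodimeric triplet polymerase ribozyme were given their own mutant library, built by PCR and transcribed. Each library was annealed with a biotinylated primer, the partner subunit and triplets, incubated frozen at −7 °C, and its extended constructs gel-excised, captured on streptavidin beads and amplified by RT-PCR, all in one round done in triplicate. Fitness is the logarithm of genotype enrichment relative to wild-type enrichment, with replicates averaged by inverse-variance weighting. That logarithm is base 2, and Illumina-sequenced genotypes needed ≥10 input reads and ≥1 read per output.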

Variant | polymerase ribozyme fitness (log ratio)
C93G A115G C131U | -3.48
C95U C149A | ≤ -4.2
C95U C96U U111A G136U | ≤ -4.2
C99U U104A U109C A115G | -3.79
C96G A115G C123A A147U | -0.404
U101G A113U | -1.25
G94U A98U C99G A147G | -3.16
C96U U102C C125U | -2.51
C95G C96U | -2.05
C99U A147G | -2
C96A U148A | -3.15
C93U A137C | -4.07
C93U A137G | -3.18
C93U A137U | ≤ -4.2
C96U C132A | -1.63
G94C U144C A150G | ≤ -4.2
C96G U102A U109C | ≤ -4.2
C93U A98C | -0.981
C93G C108A | ≤ -4.2
C93G C108U | -3.94
G94C C96U G136A G140A | ≤ -4.2
C95U A98G | -1.9
C95U C116G U135A | -2.67
U101G A115G C149G | ≤ -4.2

Variant | polymerase ribozyme fitness (log ratio)
C96U A138U | ≤ -4.2
U101C C132A | -2.05
C93A A113U | -4.07
C99U G126A G143U | -3.55
C93G C114U | -3.97
G94A U151A | ≤ -4.2
C93U C103G A120U G141C U144A | ≤ -4.2
G100C | -3.72
G100U | -2.58
G100A | -3.76
C93A C95G C99G G124C | ≤ -4.2
C99U C149U | -1.17
C99A U146A | -1.15
C99A U146G | -1.41
G92U G133C | -2.1
C99A G136A | -0.217
C96U A119U | -0.778
A98U G128C G133C U135A | ≤ -4.2
C96G A122U | -1.49
C93G U130A G141U | ≤ -4.2
C96A A97G G126U G140U | ≤ -4.2
C96G A120G | -2
C96U U101C A142C | -1.82
A97U U134G | -2.5

Variant | polymerase ribozyme fitness (log ratio)
A98G A107G U145C | ≤ -4.2
C93U U135C | -2.76
C96A A97G | -0.635
C93G G140U | ≤ -4.2
G94A G117C A137G | -3.09
C93A A107U G126C A150G | ≤ -4.2
C95U U130G | -2.55
C93A C132G A138C G140U G141C | ≤ -4.2
C93G C95A C123A | ≤ -4.2
C93U U146A | -1.46
G100U C118A G141C | ≤ -4.2
C93A C103G | -3.88
C93G C103G | ≤ -4.2
C93G C103G U104G G141C | ≤ -4.2
C93A U146A U148C | ≤ -4.2
C93U C125G | -1.79
C96U A142C | -1.15
C99G C108A A110G | ≤ -4.2
C96G A98U U144G | -0.0548
C93G A98C G143C | -4.05
C99G U144A U148A | ≤ -4.2
G94U U102C | -2.06
C93U G140U U148A | ≤ -4.2
G92U C108G A120U C129A C149G | ≤ -4.2

Variant | polymerase ribozyme fitness (log ratio)
G94U C95A G152A | -3.85
A97U U148C | -1.51
C93A U104C A138G | ≤ -4.2
C93G C95G | ≤ -4.2
C96U C123A | -0.106
C96U C123U | -0.655
C93G A119C | -3.47
C93G A119U | -3.51
C96G C131A | -2.35
C93U A119G C123U U135G | -4.18
C99G U104G C105U C118A | ≤ -4.2
C93U C149G | -4.08
C93U C149A | -4.05
C93G A122U | -2.98
C95A C96A U102G U144A | ≤ -4.2
G100U U139G U146G | ≤ -4.2
G100U U139C | ≤ -4.2
C96U A107C | -3.14
C95U U104G C116U C131A | ≤ -4.2
C96U A97C C108G A120G U127G | ≤ -4.2
C93A U146C | -2.18
C96G C99G | ≤ -4.2
C99G U134C | -0.713
C93A G136A | -1.14

Variant | polymerase ribozyme fitness (log ratio)
C99A U134G | -2.57
C93G C95A C103U | ≤ -4.2
C93A U104C | -3.27
C93U C118A C125A U139C | -4.16
C93A U101G | -3.29
C93A A97G | -3.37
C93A A97U | -3.38
G94A A97U C125G | -2.14
G94A U101G U148A | -4.03
G92U C105U A107U A110C A138C | ≤ -4.2
A98U C105A A119G A121C | -0.491
C93G G133A U135C U144G | ≤ -4.2
C93U C95U U102C A107C | ≤ -4.2
C93A U148G | ≤ -4.2
G94U G100U | -3.85
C93A A150G | -3.51
C99U U104G | -1.84
G92U G136C | -3.44
C96A C105G | -1.4
C96A C105U | 0.343
G100C C125U U135G | ≤ -4.2
C96G A110G | -3.11
C96A C118U U148C | -2.57
G94A U102G | ≤ -4.2

Variant | polymerase ribozyme fitness (log ratio)
A98G A120G | -0.401
C93U U135G U139A | ≤ -4.2
G94A A113C C123U C149A | ≤ -4.2
C93G C99G C103A A115U C132U | ≤ -4.2
C96A A137U | -3.87
G94C C129G | -3.39
C93A U139A G140U | ≤ -4.2
C96U U139A | -3.94
A97U G152A | -2.62
C93G C96U A110G | ≤ -4.2
C96G A142U U146A | -1.97
C93G U101C | -3.2
A97C C103G C114G | -3.86
C96G C105G G143A | -3.02
C99G C118G U134G U135A G136U U148C | ≤ -4.2
C93U C96A | -1.65
C93U C95G A113G A137U A138U | ≤ -4.2
C96G A97G G143U | -3.14
G92U C99U U148A | ≤ -4.2
C96A C105G C125A | -2.29
C96A G124U | -0.674
C99A C103G A119G | ≤ -4.2
G92U C125U | -1.4
C93U U109C | ≤ -4.2

Variant | polymerase ribozyme fitness (log ratio)
C93U A107G | ≤ -4.2
C93U C99G A106U | ≤ -4.2
C93A A106C | -2.63
C95U U146G | -1.04
G94C U101A G152A | -2.72
C99G A115G U127G C131A | ≤ -4.2
C95U U151G | ≤ -4.2
C99G U102G U135A | ≤ -4.2
C93U C96A C99U U102G A110G | ≤ -4.2
C99A C114U U135G | -3.68
C93A A106C U127G U144A | ≤ -4.2
C93A C103A C108A A113G | ≤ -4.2
C96A A98U | -0.335
C96G A142G U145G A147U | -2.85
G100A G126A | -4.02
C93U A97U | -2.14
C99U A107U | -3.88
A98G A107U | -3.24
C96A C103G | -2.53
C93A C95A U104A G141C | ≤ -4.2
C96U U104A A107C U148A | ≤ -4.2
C95U A150G | -2.25
G94A U127G U146G | -3.33
